# Some of the results follow. The full chains were built here from the parent and the listed change. Values near 0.05 are background.
# B1: TEV protease; numbered along this chain (parent)
# chain: MGESLFKGPRDYNPISSSICHLTNESDGHTTSLYGIGFGPFIITNKHLFRRNNGTLVVQSLHGVFKVKDTTTLQQHLVDGRDMIIIRMPKDFPPFPQKLKFREPQREERICLVTTNFQTKSMSSMVSDTSCTFPSGDGIFWKHWIQTKDGQCGSPLVSTRDGFIVGIHSASNFTNTNNYFTSVPKNFMELLTNQEAQQWVSGWRLNADSVLWGGHKVFMVKPEEPFQPVKEATQL
# Variants of: B1
# Assay: raw area under fraction-flipped curve 0-4 h after induction (AUC4h, not background-subtracted), DNA-recorder readout of cleavage of the substrate (dimensionless); higher = more cleavage of the substrate by the protease variant
# Settings: temperature: 34 °C; time window: 0-4 h after rhamnose induction
# Experimental: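 In vivo DNA recorder in E. coli TOP10(DE3) ΔrhaA at 34 °C. Each TEVp single-site mutant (parent TEVp 0) is paired with a single-site variant of the 7-mer TEVs (canonical ENLYFQ|S). The substrate sits between flexible linkers in a Bxb1-sfGFP-TEVs-SsrA fusion, so cleavage stabilises Bxb1 and speeds flipping of a recombination array, read by NGS. The value is the raw area under the fraction-flipped curve over 0-4 h after rhamnose induction (AUC4h), with ≥20 reads per time point. It is not background-subtracted; inactive controls average about 0.047.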
# 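Further: Bxb1 expression induced with 0.2% (w/v) L-rhamnose at OD600 near 0.5, cultures sampled hourly, flipped fraction per protease–substrate barcode pair counted by paired-end Illumina sequencing.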
Variant,area with substrate ENLYFQC,area with substrate ENLYFQG,area with substrate ENLYFQI,area with substrate ENLYFQK,area with substrate ENLYFQL,area with substrate ENLYFQP,area with substrate ENLYFQR,area with substrate ENLYFQS,area with substrate ENLYFQY,area with substrate ENLYFQD,area with substrate ENLYFQM,area with substrate ENLYFQN,area with substrate ENLYFQT,area with substrate ENLYFQW,area with substrate ENLYFQH,area with substrate ENLYFQF,area with substrate ENLYFQV,area with substrate ENLYFQE,area with substrate ENLYFQQ
MGESLFKGPRDYNPISSSICHLTNESDGHTTSLYGIGFGPFIITNKHLFRRNNGTLVVQSLHGVFKVKDTTTLQQHLVDGRDMIIIRMPKDFPPFPAKLKFREPQREERICLVTTNFQTKSMSSMVSDTSCTFPSGDGIFWKHWIQTKDGQCGSPLVSTRDGFIVGIHSASNFTNTNNYFTSVPKNFMELLTNQEAQQWVSGWRLNADSVLWGGHKVFMVKPEEPFQPVKEATQL [Q97A],0.0931,0.0873,0.0581,0.0685,0.0748,0.0586,0.0596,0.105,0.0934,,,,,,,,,,
MGESLFKGPRDYNPISSSICHLTNESDGHTTSLYGIGFGPFIITNKHLFRRNNGTLVVQSLHGVFKVKDTTTLQQHLVDGRDMITIRMPKDFPPFPQKLKFREPQREERICLVTTNFQTKSMSSMVSDTSCTFPSGDGIFWKHWIQTKDGQCGSPLVSTRDGFIVGIHSASNFTNTNNYFTSVPKNFMELLTNQEAQQWVSGWRLNADSVLWGGHKVFMVKPEEPFQPVKEATQL [I85T],0.0417,,0.0414,,0.0437,0.0315,0.0575,0.0639,,0.0372,0.0483,0.0577,0.0474,0.0525,,,,,
MGESLFKGPRDYNPISSSICHLTNESDGHTTSLYGIGFGPFIITNKHLFRRNNGTLVVQSLHGVFKVKDTTTLQQHLVDGRDMIIIRMPKDFPPFPQFLKFREPQREERICLVTTNFQTKSMSSMVSDTSCTFPSGDGIFWKHWIQTKDGQCGSPLVSTRDGFIVGIHSASNFTNTNNYFTSVPKNFMELLTNQEAQQWVSGWRLNADSVLWGGHKVFMVKPEEPFQPVKEATQL [K98F],0.128,0.0906,,0.0796,0.0536,,0.0659,0.0972,0.0709,,,0.0735,0.0629,0.0784,0.0853,,,,
MGESLFKGPRDYNPISSSICHLTNESDGHTTSLYGIGFGPFIITNKHLFRRNNGTLVVQSLHGVFKVKDTTTLQQHLVDGRDMIIIHMPKDFPPFPQKLKFREPQREERICLVTTNFQTKSMSSMVSDTSCTFPSGDGIFWKHWIQTKDGQCGSPLVSTRDGFIVGIHSASNFTNTNNYFTSVPKNFMELLTNQEAQQWVSGWRLNADSVLWGGHKVFMVKPEEPFQPVKEATQL [R87H],0.13,,0.0539,,,,,0.105,,,0.0832,0.0682,,,,,,,
MGESLFKGPRDYNPISSSICHLTNESDGHTTSLYGIGFGPFIITNKHLFRRNNGTLVVQSLHGVFKVKDTTTLQQHLVDGRDMIIIRMLKDFPPFPQKLKFREPQREERICLVTTNFQTKSMSSMVSDTSCTFPSGDGIFWKHWIQTKDGQCGSPLVSTRDGFIVGIHSASNFTNTNNYFTSVPKNFMELLTNQEAQQWVSGWRLNADSVLWGGHKVFMVKPEEPFQPVKEATQL [P89L],0.106,0.0903,,,0.0516,,,0.0707,,,,,0.0559,,0.0534,0.0987,0.0348,,
MGESLFKGPRDYNPISSSICHLTNESDGHTTSLYGIGFGPFIITNKHLFRRNNGTLVVQSLHGVFKVKDTTTLQQHLVDGRDMAIIRMPKDFPPFPQKLKFREPQREERICLVTTNFQTKSMSSMVSDTSCTFPSGDGIFWKHWIQTKDGQCGSPLVSTRDGFIVGIHSASNFTNTNNYFTSVPKNFMELLTNQEAQQWVSGWRLNADSVLWGGHKVFMVKPEEPFQPVKEATQL [I84A],0.0614,0.103,0.0434,0.0506,0.0664,0.0335,0.0621,0.0787,0.0555,,0.0709,,0.0625,0.0624,0.0722,,,,
MGESLFKGPRDYNPISSSICHLTNESDGHTTSLYGIGFGPFIITNKHLFRRNNGTLVVQSLHGVFKVKDTTTLQQHLVDGRDMIIIRMPKDFPPFPQKLKFREPQREERICLVTYNFQTKSMSSMVSDTSCTFPSGDGIFWKHWIQTKDGQCGSPLVSTRDGFIVGIHSASNFTNTNNYFTSVPKNFMELLTNQEAQQWVSGWRLNADSVLWGGHKVFMVKPEEPFQPVKEATQL [T115Y],0.119,,0.0611,0.0591,0.0485,,0.053,0.0994,0.0798,0.0689,,0.0653,,0.0656,0.0831,0.0681,0.0634,,
MGESLFKGPRDYNPISSSICHLTNESDGHTTSLYGIGFGPFIITNKHLFRRNNGTLVVQSLHGVFKVKDTTTLQQHLVDGRDMIIIRMPKDFPPFPQKLKFREPQRLERICLVTTNFQTKSMSSMVSDTSCTFPSGDGIFWKHWIQTKDGQCGSPLVSTRDGFIVGIHSASNFTNTNNYFTSVPKNFMELLTNQEAQQWVSGWRLNADSVLWGGHKVFMVKPEEPFQPVKEATQL [E107L],0.109,,,0.0625,,,0.0845,0.0951,0.0684,0.0578,0.0721,0.0838,0.0484,,,,,,
MGESLFKGPRDYNPISSSICHLTNESDGHTTSLYGIGFGPFIITNKHLFRRNNGTLVVQSLHGVFKVKDTTTLQQHLVDGRDMIIIRMPKDFPPFPQKRKFREPQREERICLVTTNFQTKSMSSMVSDTSCTFPSGDGIFWKHWIQTKDGQCGSPLVSTRDGFIVGIHSASNFTNTNNYFTSVPKNFMELLTNQEAQQWVSGWRLNADSVLWGGHKVFMVKPEEPFQPVKEATQL [L99R],0.0957,0.0929,0.0596,0.068,0.0838,,0.0693,0.0881,0.0778,,0.0646,0.0894,0.0737,0.0479,0.0514,0.0603,0.0594,0.079,0.0859
MGESLFKGPRDYNPISSSICHLTNESDGHTTSLYGIGFGPFIITNKHLFRRNNGTLVVQSLHGVFKVKDTTTLQQHLVDGRDMIIIRMPKDFPPFPQKYKFREPQREERICLVTTNFQTKSMSSMVSDTSCTFPSGDGIFWKHWIQTKDGQCGSPLVSTRDGFIVGIHSASNFTNTNNYFTSVPKNFMELLTNQEAQQWVSGWRLNADSVLWGGHKVFMVKPEEPFQPVKEATQL [L99Y],0.093,0.0737,0.0566,0.0591,0.0427,,0.0603,0.0787,0.0656,0.0639,0.0714,,0.0577,0.0567,0.0466,0.0541,,,
